From PubChem BioAssay AID1362 (SRMLSC, 2008)
This is one part of the list. Shown are side measurements of this screen, not its main read-out; they come without a call. Compounds called inactive in the main read-out are mostly missing here.

Assay: growth inhibition of WT strain, primary screen, mitochondrial fusion inhibitor project, WT and mutant strains, chemical genetic (AID 1362); further: tested in S. cerevisiae
Conditions: mitochondrial fusion phenotypic screen, at 10 µM

Q: For `Oc1ccc(Cl)cc1/C=C/c1ccc2cccc(O)c2n1`, which inhibition is on record?
A: Its inhibition is 32.6%.

Q: Which inhibition does the source give for `CN1CCN(C(=O)c2cnn3c(C(F)(F)F)cc(-c4ccc5c(c4)OCO5)nc23)CC1` here?
A: Its inhibition is 96.2%.

Q: For `C=CCn1c(C)c(C(C)=O)c(N2CCN(C(c3ccccc3)c3ccccc3)CC2)nc1=S`, which inhibition is on record?
A: Its inhibition is 5.47%.

Q: Which inhibition does the source give for `COc1cccc(OC)c1OCCCOc1ccc(C)cc1Br` here?
A: Its inhibition is 32.9%.

Q: For `CC1CCN(S(=O)(=O)c2ccc(Oc3ccc([N+](=O)[O-])cc3)cc2)CC1`, which inhibition is on record?
A: The inhibition was 6.76%.

Q: Which inhibition does the source give for `O=C(CCCOc1ccc(Cl)cc1Cl)N1CCCc2ccccc21` here?
A: Its inhibition is 52.3%.

Q: With `COc1ccccc1C(=O)NC(=S)/C=C1/N(C)c2ccccc2C1(C)C` as the molecule, how does the inhibition read?
A: The inhibition was 14.6%.

Q: For `Cc1cc(NC(=O)COC(=O)C(Nc2ccc(C(F)(F)F)cc2Cl)C(C)C)no1` (centres undefined), which inhibition is on record?
A: The inhibition was 27.5%.

Q: With `CCn1c2ccccc2c2cc(/C=N/NC(=O)c3cccc(C)c3)ccc21` as the molecule, how does the inhibition read?
A: The inhibition was 6.29%.

Q: Which inhibition does the source give for `COc1ccc(OCC(=O)NNc2c3ccccc3nc3ccccc23)cc1` here?
A: The inhibition was 35.4%.

Q: With `Cc1cccc(NS(=O)(=O)c2ccc(C3CCCCC3)cc2)c1` as the molecule, how does the inhibition read?
A: Its inhibition is 24.4%.

Q: Which inhibition does the source give for `Cc1cccc2c(C(=O)N3CCN(C(=O)c4ccco4)CC3)cc(-c3cccc(Br)c3)nc12` here?
A: The inhibition was 44.4%.

Q: Which inhibition does the source give for `Cc1cccc(NC(=S)NCCC(c2ccccc2)c2ccccc2)c1` here?
A: The inhibition was 40.9%.

Q: With `Cn1nc(C(F)(F)F)c2cc(NC(=O)OCc3ccc(F)cc3)sc21` as the molecule, how does the inhibition read?
A: Its inhibition is 36.6%.

Q: For `CC(C)CN(C(=O)c1nn(C)c(=O)c2ccccc12)c1nc2ccccc2s1`, which inhibition is on record?
A: The inhibition was -7.1%.

Q: Which inhibition does the source give for `CCCCCc1nc2sc3c(c2c(=O)n1NC(=O)c1ccc([N+](=O)[O-])cc1)CC(C)(C)OC3` here?
A: Its inhibition is 22.3%.

Q: Which inhibition does the source give for `COC(=O)c1cn(C(=O)OC)c2ccccc12` here?
A: The inhibition was 3.95%.

Q: Which inhibition does the source give for `Cc1sc(-n2c(C)cc(/C=C3\SC(=S)NC3=O)c2C)c(C#N)c1C` here?
A: Its inhibition is 50.6%.

Q: Which inhibition does the source give for `Cc1cc(N2CCN(c3nc(-c4ccccc4)cs3)CC2)c2ccccc2n1` here?
A: Its inhibition is 64.9%.

Q: For `COc1ccc(-c2csc(-c3ccccc3)n2)c(OC)c1`, which inhibition is on record?
A: Its inhibition is 70%.

Q: Which inhibition does the source give for `CCNC(=S)NNC(=O)c1cc(-c2ccc(OCC)cc2)nc2ccccc12` here?
A: Its inhibition is 62.1%.

Q: Which inhibition does the source give for `CCc1cc(-c2n[nH]c(=S)n2-c2ccccc2C)cs1` here?
A: Its inhibition is 10.2%.

Q: With `CCOC(=O)c1cnc(SC)nc1Sc1cc(Cl)ccc1Cl` as the molecule, how does the inhibition read?
A: The inhibition was -3.05%.

Q: For `CN(C)C(=S)Nc1nc2ccccc2s1`, which inhibition is on record?
A: The inhibition was 66.8%.

Q: For `CC[n+]1c(C=C2C=C(C)OC(C)=C2)sc2ccccc21`, which inhibition is on record?
A: The inhibition was 62.6%.

Q: For `COC(=O)c1sccc1NC(=S)N1CCN(c2cccc(C)c2C)CC1`, which inhibition is on record?
A: Its inhibition is 41.4%.

Q: With `Cc1ccc(C(C(=O)NCC2CCCO2)N(Cc2ccccc2)C(=O)c2ccc(-c3ccccc3)[nH]2)o1` (centres undefined) as the molecule, how does the inhibition read?
A: The inhibition was -0.51%.

Q: Which inhibition does the source give for `O/C(=C\c1nc2ccccc2nc1/C=C(\O)c1ccccc1)c1ccccc1` here?
A: The inhibition was 30.7%.

Q: For `CC1CC(C)(C)N2C(=O)C3(Nc4ccccc4S3)c3cccc1c32` (centres undefined), which inhibition is on record?
A: The inhibition was 11.5%.

Q: With `Oc1ccc(-c2nc3c4c(ncn3n2)-c2ccccc2CC42CCCC2)cc1` as the molecule, how does the inhibition read?
A: Its inhibition is 89.4%.

Q: With `COc1ccc(NS(=O)(=O)c2ccc3oc(Nc4ccc5c(c4)OCCO5)nc3c2)cc1` as the molecule, how does the inhibition read?
A: Its inhibition is 19.6%.

Q: Which inhibition does the source give for `CC(Nc1ccc(Br)cn1)c1cc(Cl)ccc1O` (centres undefined) here?
A: Its inhibition is 54.5%.

Q: With `CC1=CC(C)(C)N(S(=O)(=O)c2ccc(C)cc2)c2cc(C)ccc21` as the molecule, how does the inhibition read?
A: Its inhibition is 20.9%.

Q: Which inhibition does the source give for `COc1c(C(=O)Nc2ccc(Cc3ccncc3)cc2)ccc2ccccc12` here?
A: Its inhibition is 28.5%.

Q: With `CCOc1ccc(-n2c(SCC(=O)Nc3cc(C)on3)nnc2-c2c[nH]c3ccccc23)cc1` as the molecule, how does the inhibition read?
A: The inhibition was 5.63%.

Q: Which inhibition does the source give for `Clc1ccc(N=c2ssnc2Cl)nc1` here?
A: The inhibition was 66.8%.

Q: Which inhibition does the source give for `CC1=CN2C(=N)/C(=C/c3ccc(Sc4ccc(C)cc4)o3)C(=O)N=C2S1` here?
A: The inhibition was -3.95%.

Q: Which inhibition does the source give for `CC(C)=CCc1c(O)c(CC=C(C)C)c2c(c1O)C(=O)CC(c1ccc(O)cc1)O2` (centres undefined) here?
A: Its inhibition is 18.9%.

Q: For `COc1ccc(-c2noc(CSc3nnc(Cc4ccccc4)n3-c3ccc(Cl)cc3)n2)cc1`, which inhibition is on record?
A: The inhibition was 8.85%.

Q: With `C/C(CCN1CCc2nc(-c3ccccc3)c(-c3ccccc3)cc2C1)=N\OC[C@@H](C)[C@H](OCc1ccccc1)C(C)C` as the molecule, how does the inhibition read?
A: Its inhibition is 5.32%.

Q: Which inhibition does the source give for `CCOC(=O)C1(CCOc2ccccc2)CCN(Cc2ccc3nonc3c2)CC1` here?
A: The inhibition was 37.1%.

Q: Which inhibition does the source give for `COc1ccc(-c2nnc(NC(=O)c3ccccc3C)o2)cc1` here?
A: The inhibition was 45.1%.

Q: For `Cc1c(C#N)c(N=CN(C)C)c(C(=O)c2ccc(Br)cc2)n1-c1ccc(Cl)cc1`, which inhibition is on record?
A: Its inhibition is 36.3%.

Q: With `Cc1cc(OCCCn2ccnc2)cc(C)c1Cl` as the molecule, how does the inhibition read?
A: Its inhibition is 59.6%.

Q: For `Cc1ccc(NNC(=O)C(O)(c2cccc(C(F)(F)F)c2)c2cccc(C(F)(F)F)c2)cc1`, which inhibition is on record?
A: Its inhibition is 11.3%.

Q: With `Cc1cccc(C)c1OCC(O)Cn1c2ccccc2c2ccccc21` (centres undefined) as the molecule, how does the inhibition read?
A: The inhibition was 45.7%.

Q: With `Cc1ccc(NCc2nc3ccccc3n2CCOc2ccccc2)cc1` as the molecule, how does the inhibition read?
A: The inhibition was 34.1%.

Q: For `CN(C(=O)/C(N=Nc1cccc(C(F)(F)F)c1)=C(\O)C(F)(F)F)c1ccccc1`, which inhibition is on record?
A: Its inhibition is 41.4%.

Q: For `O=C(Nc1ccc(Cl)cc1)N1CCN(c2ccc3nnc(-c4ccc(F)cc4)n3n2)CC1`, which inhibition is on record?
A: Its inhibition is -3.09%.

Q: With `Cc1ccsc1/C=N/NC(=S)NCCc1ccccc1` as the molecule, how does the inhibition read?
A: Its inhibition is 65.9%.

Q: For `Cc1ccccc1NC(=S)N(Cc1cccs1)C1CCCCC1`, which inhibition is on record?
A: Its inhibition is 42.8%.

Q: Which inhibition does the source give for `CCN(CC)CCOC(=O)c1ccc(NC(=O)c2cn(-c3ccccc3)nc2-c2cccs2)cc1` here?
A: The inhibition was 88.8%.

Q: For `S=c1[nH]nc(CSCc2ccccc2Cl)n1C1CCCCC1`, which inhibition is on record?
A: Its inhibition is 44.5%.

Q: For `CC(=O)Nc1ccc(C(=O)OCC(=O)Nc2ccccc2Sc2ccccc2)cc1`, which inhibition is on record?
A: Its inhibition is 42.6%.
